Here are results for 109 sequences from publication PMC6212790.

Some of the results follow. At the low end of the ranking the order means little.

In this assay the target is T1, GST-Rok (full length) (UniProt O34857).
T1 sequence: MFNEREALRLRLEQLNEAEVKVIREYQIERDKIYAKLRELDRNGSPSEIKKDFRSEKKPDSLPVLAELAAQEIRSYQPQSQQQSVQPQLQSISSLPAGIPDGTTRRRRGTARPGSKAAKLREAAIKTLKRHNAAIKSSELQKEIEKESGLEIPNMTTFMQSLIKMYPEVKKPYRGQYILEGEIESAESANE
Kind of assay: protein binding microarray.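 Further: rank score from −0.5 (least bound) to 0.5 (best bound).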 The conditions noted are these: Rok is a gene silencer of Bacillus subtilis; high values mean tight binding; most listed sequences are background and not binding sites; double strand, one strand shown.
The sequence TCCAGGAA displayed a binding signal of -0.054 E-score. GCTATTTA displayed a binding signal of 0.13 E-score. As for ACTAGGGC, the figure is -0.0238 E-score; as for GACGGGCC, -0.295 E-score. The result for AACAGTAG reads 0.354 E-score; that for CCAAGCGC, -0.12 E-score; that for AATCACTA, -0.0124 E-score. In turn, ATCTCACC showed a binding signal of 0.0614 E-score.

ATCGCTAG gave a binding signal of 0.07 E-score. Sequence ATTTGAAA returned a binding signal of -0.00558 E-score. The result for GGAATCGA reads 0.108 E-score; that for AGGCCTTG, -0.351 E-score. Consider CATCCAAA, for which the binding signal is -0.102 E-score.

As to GTACTACA, the binding signal was 0.314 E-score.

In the case of CCGACCGC, the binding signal is -0.315 E-score. The result for ATTAACTC reads 0.092 E-score; that for AGCCAAGC, -0.0321 E-score. As for AAACATTA, the figure is 0.165 E-score; as for CTACCCCA, 0.0549 E-score. The result for GAATCCAA reads 0.0152 E-score; that for CTTTTTCC, -0.17 E-score; that for CCCAGGCG, -0.424 E-score. The sequence ATAGGGAT yielded a binding signal of 0.0682 E-score. CAGCCCGA gave a binding signal of -0.278 E-score. In turn, CGGTACTC yielded a binding signal of 0.0568 E-score. As for TTAGTGAA, the figure is 0.111 E-score.

The sequence CAAGCGCG gave a binding signal of -0.11 E-score. The result for GCGACTTA reads 0.0295 E-score; that for ATTTCACG, 0.0446 E-score. The sequence GCCCTACA gave a binding signal of -0.214 E-score. The result for AGGTCTTG reads -0.0572 E-score; that for CACATGGG, -0.0632 E-score; that for ACGGGATC, -0.0935 E-score. As for GCTCTTTA, the figure is -0.0828 E-score; as for ACGACAAC, 0.163 E-score; as for AGACGTGC, -0.0331 E-score. TGATGGCA came in with a binding signal of -0.0692 E-score. As for CTGCCAGA, the figure is -0.126 E-score; as for CTGTGGGA, -0.175 E-score; as for AACGAGGC, -0.00325 E-score. The sequence GCTTGTAC showed a binding signal of 0.0128 E-score. In turn, AATTTCAC returned a binding signal of 0.136 E-score. GATACGCA: the binding signal was 0.0774 E-score. As for CGTGGTCC, the figure is -0.314 E-score. The sequence ACGCAGCC registered a binding signal of -0.292 E-score. As for ATGCGAGG, the binding signal was -0.0631 E-score. The result for GGATGGAA reads -0.267 E-score; that for AATCACAG, 0.0127 E-score. GGATACCA registered a binding signal of 0.0794 E-score. On to AAACTCGT, for which the binding signal was 0.163 E-score. The result for AAGCAGCC reads -0.0807 E-score; that for CAGTAGCG, 0.143 E-score; that for ATCGGCTG, -0.01 E-score.

ATCGTGGA yielded a binding signal of -0.001 E-score. The result for GAGGCATC reads -0.172 E-score; that for GTTACCAA, 0.0544 E-score.

The sequence AGACAATA gave a binding signal of 0.0734 E-score.

For TGGCCCAA, the binding signal was -0.305 E-score.

With AAAGCTTT, the binding signal was -0.0317 E-score.

Sequence GAATAATC came in with a binding signal of -0.0982 E-score.

AAATTGGG displayed a binding signal of 0.108 E-score. Regarding ACAAGGGA, the binding signal was -0.18 E-score. As for GTTCGTGA, the figure is 0.0315 E-score; as for AGCGCACC, -0.254 E-score. As for ATATTAGG, the figure is 0.149 E-score; as for GAAATTGC, 0.132 E-score. CAAACTGG yielded a binding signal of -0.149 E-score. As for CGACGAAC, the binding signal is -0.00956 E-score. The result for ACCACGTG reads -0.15 E-score; that for CAACTGCA, 0.204 E-score. The result for CCACGATA reads 0.0626 E-score. As for AGCGTTGG, the figure is -0.206 E-score; as for AATCTTGG, -0.0853 E-score. The sequence AGGCTTTA gave a binding signal of -0.128 E-score. Take ATTATAGA: the binding signal is 0.353 E-score.

For CAGCTGGA, the binding signal is -0.0564 E-score. Regarding CACTAATG, the binding signal worked out at 0.154 E-score. The result for ACTCTGTA reads 0.118 E-score; that for ATCTCAAA, 0.135 E-score; that for CCGAAACG, -0.141 E-score. Sequence GGTTGTCA displayed a binding signal of -0.0845 E-score. With AGGGCTAC, the binding signal was -0.216 E-score. The result for GGGTGGGA reads -0.134 E-score; that for TTCCTCAA, -0.0758 E-score. ATCTAGGA displayed a binding signal of 0.0234 E-score. As for ACAAGTGA, the figure is 0.015 E-score; as for CAGTAATA, 0.182 E-score. The result for CATTCGCA reads -0.164 E-score. The sequence ATCACTAA displayed a binding signal of 0.144 E-score. In turn, GGTATATA had a binding signal of 0.386 E-score.

The sequence ACTACAAG returned a binding signal of 0.22 E-score. The result for AGTAGTCC reads 0.0625 E-score; that for ATCCTGTA, 0.283 E-score.

As to GCTTATAA, the binding signal was found to be 0.0947 E-score. As for TATGGACA, the figure is 0.0856 E-score.

For ATTTTGCC, the binding signal stood at 0.0261 E-score.

Turning to CCCAGACC, the binding signal is -0.315 E-score.

AATCAATC had a binding signal of 0.0523 E-score. In turn, TAATTTAA yielded a binding signal of 0.356 E-score. As for AAACATGA, the figure is 0.273 E-score. As for AATGCAGC, the figure is -0.116 E-score.

Turning to CGTAAGGC, the binding signal is -0.174 E-score. The sequence ATCCTTAG had a binding signal of 0.0244 E-score.

In the case of CCAGAGCC, the binding signal is -0.314 E-score. As for AGCACAAG, the figure is 0.0298 E-score. As for AAGGATTG, the figure is -0.128 E-score. As for GTACCAGA, the figure is -0.0447 E-score; as for CAGCACAG, -0.0991 E-score; as for GTTTAACA, 0.108 E-score.
